Among the data in paper PMC5906591 are stoichiometry N (toxin:antitoxin) values, retold here.

The test has as its target His-HigB2Ab toxin (N-terminal His-tag fusion, from pET-His-HigBA) (Acinetobacter baumannii). The experiment in a line: SEC. For orientation: SEC sorts molecules by how far they enter the pores of the column.

In turn, “HigA2Ab antitoxin, untagged (co-expressed from pET-His-HigBA)” showed a stoichiometry N (toxin:antitoxin) of 1.5.
